# Experimental data reported in PubChem BioAssay AID1460 (National Center for Advancing Translational Sciences (NCATS), 2008).
# Several values for one entry are separate records, joined by “and”; a condition that tells them apart may be missing. Identical values can stand only once. The whole screen tested about 270,000 compounds, of which about 5,800 (2.1%) were called active. This list was built around the results that the source calls inconclusive (neither active nor inactive); the mix of calls is not that of the screen. Calls follow the shape of the dose curve; as a rule, active = well fitted inhibition curve with a large enough effect; inconclusive = small, poorly fitted or top-dose-only effect; inactive = flat fitted curve, though single readings scatter. A potency beside an inconclusive call is a rough fit, not a confirmed value.
# Molecular target: Microtubule-associated protein tau (Homo sapiens) (UniProt P10636)
# Assay: qHTS for Inhibitors of Tau Fibril Formation, Thioflavin T Binding; also: nearly all actives have a fitted effect of over 55% in size
# Conditions: recombinant tau K18 P301L, heparin-induced fibrillization, ThT fluorescence; series mostly up to 57.4 µM; activity, negative = inhibition: at the top concentration
# Outline: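 Fibril formation assay: tau K18 P301L at 15 uM with trace Alexa 594 label, heparin inducer 20 uM, pH 7 sodium acetate buffer, 37 C for 6 hr; endpoint ThT signal.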
# % is scaled to controls: 0 for no effect and ±100 for the full control effect; potency is read from the fitted curve at half-maximal effect; tags tell the direction and shape of the fitted curve.
# Sequence of UniProt P10636 (P10636 whole entry, looked up): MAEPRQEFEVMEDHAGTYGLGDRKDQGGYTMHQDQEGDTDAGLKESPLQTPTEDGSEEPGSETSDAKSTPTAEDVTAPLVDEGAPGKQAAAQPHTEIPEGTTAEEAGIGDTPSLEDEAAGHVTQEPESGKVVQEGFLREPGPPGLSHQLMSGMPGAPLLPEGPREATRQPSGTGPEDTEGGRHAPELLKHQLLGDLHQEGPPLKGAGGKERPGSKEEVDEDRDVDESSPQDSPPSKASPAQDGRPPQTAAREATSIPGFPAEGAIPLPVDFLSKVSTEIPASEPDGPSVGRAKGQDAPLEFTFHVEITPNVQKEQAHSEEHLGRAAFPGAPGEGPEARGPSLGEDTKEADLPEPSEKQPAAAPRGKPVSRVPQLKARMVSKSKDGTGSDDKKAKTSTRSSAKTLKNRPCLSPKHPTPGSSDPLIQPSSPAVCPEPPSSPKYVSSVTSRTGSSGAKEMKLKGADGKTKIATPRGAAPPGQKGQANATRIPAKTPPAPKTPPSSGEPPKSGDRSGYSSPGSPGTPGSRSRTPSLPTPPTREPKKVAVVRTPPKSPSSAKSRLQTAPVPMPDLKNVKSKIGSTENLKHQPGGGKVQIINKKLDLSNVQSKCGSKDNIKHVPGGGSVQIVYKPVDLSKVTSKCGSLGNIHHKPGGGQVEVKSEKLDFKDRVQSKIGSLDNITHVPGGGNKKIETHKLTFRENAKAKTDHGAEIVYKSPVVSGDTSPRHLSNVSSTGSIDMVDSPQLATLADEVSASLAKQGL
SMILES,Potency,"activity, negative = inhibition"
CCc1ccc(-c2nc(CSCC(=O)N3CCN(c4ncccn4)CC3)c(C)o2)cc1,"inconclusive: 14.1 µM [inhibitor, partial curve]",–
CCSc1nnc(NC(=O)c2nc3nc(C)cc(C)n3n2)s1,–,inactive: -10.6%
Cc1cc(N2CCN(c3ccccc3)CC2)n2cc(-c3ccccc3)nc2n1,"inconclusive: 31.6 µM [inhibitor, single point]",–
COc1ccc(NCC(O)Cn2cnc3c2c(=O)n(C)c(=O)n3C)cc1 (stereo not given),–,inactive: -4.22%
Cc1ccc(C)c(NC(=O)CN2C(=O)CCc3ccccc32)c1,"inconclusive: 14.1 µM [inhibitor, partial curve]",–
CCCC(=O)N1CCN(c2ccc(NC(=O)c3cccs3)cc2)CC1,"inconclusive: 12.6 µM [inhibitor, partial curve]",–
O=[N+]([O-])c1ccc(Cl)c2c1C1C=CCC1C(c1ccccn1)N2 (stereo not given),active: 25.1 µM,–
O=c1[nH]c(S)nc2sc3c(c12)CCCC3,"inconclusive: 12.6 µM [inhibitor, partial curve]",–
CCCCc1nc2c(c3c1C[C@H](C)OC3)CN(C(=O)Nc1cccc(C#N)c1)CC2,–,inactive: 11.1% [at 11.5 µM]
Cc1cc(O)c(C=O)c(O)c1C(=O)O,"inconclusive: 20 µM [inhibitor, partial curve]",–
CSc1nsc(SC)c1C(=O)Nc1ccc(C)cc1,–,inactive: -12.8%
CCc1ccc(NC(=O)c2ccc3c(O)c(S(=O)(=O)c4ccc(Cl)cc4)c(=O)[nH]c3c2)cc1,–,inactive: 18%
O=C(CCl)Nc1cccc(-c2cnc3ccccc3n2)c1,"inconclusive: 22.4 µM [inhibitor, partial curve]",–
COCCNC(=O)CSc1nnc(-c2ccccc2)c(-c2ccccc2)n1,–,inactive: 9.74%
CCn1c(COc2cccc(C)c2)nnc1SCC(=O)CC(=O)Nc1ccccc1OC,"inconclusive: 22.4 µM [inhibitor, single point]",–
COC(=O)C(/C=N/OCc1ccc([N+](=O)[O-])cc1)NC(=O)c1ccccc1 (stereo not given),"inconclusive: 35.5 µM [inhibitor, partial curve]",–
Cc1ccc(C(=O)N/C(=C/c2ccco2)C(=O)OCN2C(=O)c3ccccc3C2=O)cc1,"inconclusive: 12.6 µM [inhibitor, partial curve]",–
O=[N+]([O-])c1cc(/C=N/n2c(-c3cccnc3)n[nH]c2=S)ccc1Cl,"inconclusive: 11.2 µM [inhibitor, partial curve]",–
COc1ccc(N2CCN(C(=O)c3cccc(F)c3)CC2)c([N+](=O)[O-])c1,"inconclusive: 28.2 µM [inhibitor, partial curve]",–
CC(/C=C(\NC(=O)c1ccccc1)C(=O)N=Nc1c(O)[nH]c2ccc(C)cc12)=C\c1ccccc1,active: 20 µM,–
CSc1ccc(C(=O)/C=C/c2ccc(N)cc2)cc1,active: 15.8 µM,–
COc1ccc(-c2csc(Nc3ccc(C)cn3)n2)cc1,–,inactive: -6.3%

SMILES,Potency,"activity, negative = inhibition"
CCCOc1ccc(CCC(=O)N/N=C/c2ccc([N+](=O)[O-])o2)cc1,"inconclusive: 10 µM [inhibitor, partial curve]",–
COC(=O)c1c(C)oc2ccc(N(C(=O)c3ccncc3)S(=O)(=O)c3ccccc3)cc12,"inconclusive: 20 µM [inhibitor, partial curve]",–
COc1cccc(-c2cc(C(=O)Nc3cc(Cl)ccc3O)on2)c1,"inconclusive: 14.1 µM [inhibitor, partial curve]",–
Cc1ccc(-c2cc(-c3ccccc3)c(C#N)c(Br)n2)cc1,–,inactive: -4.14%
O=C(CCn1c(=O)oc2ccccc21)n1c(=O)oc2ccccc21,"inconclusive: 20 µM [inhibitor, single point]",–
NCCNc1ccc([N+](=O)[O-])c(Sc2nc3ccccc3[nH]2)c1,"inconclusive: 15.8 µM [inhibitor, partial curve]",–
CCOC(=O)N1CCN(S(=O)(=O)c2cc(C)c(C)cc2C)CC1,–,inactive: -14.9%
COc1ccccc1NS(=O)(=O)c1cccc(C(=O)N/N=C(\C)c2ccc(-n3ccnc3)cc2)c1,"inconclusive: 17.8 µM [inhibitor, partial curve]",–
Cc1cccc(C)c1NS(=O)(=O)c1ccc(NC(=O)c2ccc(Cl)c([N+](=O)[O-])c2)cc1,"inconclusive: 11.2 µM [inhibitor, partial curve, poor fit]",–
O=C(CCC(=O)c1cccs1)NCc1ccccc1,–,inactive: 0.274%
CCN1CCN(c2cc(N3CCc4ccccc4C3)c(F)cc2[N+](=O)[O-])CC1,active: 14.1 µM,–
CC1=CC(=O)C=C(C)C1=NOC(=O)c1cccc([N+](=O)[O-])c1,"inconclusive: 12.6 µM [inhibitor, partial curve, poor fit]",–
O=S(Cc1ccc(Br)cc1)Cc1nnc(SCc2ccc(Br)cc2)n1-c1ccccc1 (stereo not given),"inconclusive: 11.2 µM [inhibitor, partial curve]",–
CCCC[n+]1ccn(C2=C([O-])c3ccccc3C(=O)/C2=N\S(=O)(=O)c2ccc(Cl)cc2)c1,active: 11.2 µM,–
Cc1ccc(C(=O)N/C(=C/c2ccco2)C(=O)NCCc2c[nH]c3ccccc23)cc1C,"inconclusive: 39.8 µM [inhibitor, single point]",–
CCOc1ccc2[nH]c(=O)c(CN(Cc3nnnn3Cc3ccco3)C3CCCCC3)cc2c1,active: 22.4 µM,–
COc1ccc(Cl)cc1N=Nc1ncc[nH]1,active: 12.6 µM,–
N#Cc1ccccc1Cn1cc(/C=C/[N+](=O)[O-])c2ccccc21,"inconclusive: 15.8 µM [inhibitor, partial curve]",–
COC(=O)c1ccc(C(NC(=O)OCc2ccccc2)/C(F)=C/[C@@H](C)C(=O)NCc2ccc(OC)c(OC)c2)cc1 (stereo not given in full),"inconclusive: 39.8 µM [inhibitor, single point]",–
COc1ccc(/C=N/NC(=O)c2ccc(Br)cc2)c(OC)c1,"inconclusive: 5.62 µM [inhibitor, partial curve]",–
Cc1nn(-c2ccccn2)c2c1-c1nc(N3CCOCC3)ncc1CC2,"inconclusive: 6.31 µM [inhibitor, single point]",–
Cc1ccc(C(=O)Nc2nc(-c3ccc([N+](=O)[O-])cc3)cs2)o1,"inconclusive: 3.55 µM [inhibitor, full curve]",–

SMILES,Potency,"activity, negative = inhibition"
CCC(=O)Nc1nc(C)c(-c2csc(Nc3ccc(S(=O)(=O)Nc4cc(C)on4)cc3)n2)s1,–,inactive: -15.9%
O=C(O)CC1c2ccccc2S(=O)(=O)N1Cc1ccccc1 (stereo not given),"inconclusive: 1.58 µM [activator, full curve, poor fit]",–
Oc1ccc(N=Nc2ccc3c(c2)OCCO3)c(O)c1,active: 3.16 µM,–
Cc1c(-c2ccc(O)cc2)nn(-c2ccc(O)cc2)c1-c1ccc(OCCN2CCCCC2)cc1,"inconclusive: 25.1 µM [inhibitor, partial curve]",–
O=C(O)c1ccc(C[n+]2c(-c3ccccc3)csc2Nc2ccccc2)cc1,"inconclusive: 35.5 µM [inhibitor, single point]",–
Cc1ccccc1-n1c(SCc2ccc(Cl)cc2)nc2[nH]ncc2c1=O,–,inactive: 1.14%
COc1cccc(N2CCN(C(=O)CCc3c(C)nc4c(c3C)c(=O)n(C)c(=O)n4C)CC2)c1,"inconclusive: 20 µM [inhibitor, single point]",–
Cc1cccc(C)c1NC(=O)c1sccc1SCc1cccc(C(F)(F)F)c1,"inconclusive: 28.2 µM [inhibitor, single point]",–
COc1ccc(/C=C2\SC(=S)N(N3CCOCC3)C2=O)c(OC)c1,"inconclusive: 0.794 µM [inhibitor, full curve]",–
O=C(COC(=O)C1CCC1)Nc1ccc(Oc2ccccc2)cc1,"inconclusive: 20 µM [inhibitor, partial curve]",–
Cc1cc(C(=O)COC(=O)CC2Sc3ccccc3NC2=O)c(C)n1-c1ccc2c(c1)OCO2 (stereo not given),"inconclusive: 28.2 µM [inhibitor, single point]",–
CCCCCC(=O)Nc1cccc(C2=NOC3(C2)C[C@H](C(N)=O)N(C(=O)c2ccccc2C(=O)c2ccccc2)C3)c1 (stereo not given in full),"inconclusive: 39.8 µM [inhibitor, single point]",–
O=C1C2(CCCC13COC(c1ccc(O)cc1)OC3)COC(c1ccc(O)cc1)OC2 (stereo not given),"inconclusive: 5.62 µM [inhibitor, partial curve, poor fit]",–
COc1cc2[nH]c(-c3ccc(C)cc3)cc(=O)c2cc1OC,"inconclusive: 2.82 µM [inhibitor, full curve] and inconclusive: 14.1 µM [inhibitor, partial curve]",–
Cc1ccc(NC(=O)CSc2nnc(-c3ccco3)c(-c3ccco3)n2)cc1,active: 7.94 µM,–
COc1ccc(-c2c3c(=O)n(C)c(=O)n(C)c3c3c(C)nc4ccccc4n23)cc1,"inconclusive: 39.8 µM [inhibitor, single point]",–
CCCc1cc(-c2nc(-c3ccc(Br)cc3)cs2)ccn1,"inconclusive: 10 µM [inhibitor, partial curve]",–
Cc1cc(NC(=O)c2cccc(N3C(=O)CCC3=O)c2)no1,"inconclusive: 15.8 µM [inhibitor, partial curve]",–
CCOc1ccc(/C=N/Nc2nc(=O)[nH]nc2C)cc1OC,"inconclusive: 20 µM [inhibitor, partial curve]",–
CSc1ccc(/C=C/C(=O)c2ccc(O)cc2)cc1,"inconclusive: 14.1 µM [inhibitor, partial curve]",–
CCC/C=C(\CCC)C(NS(=O)(=O)c1cccs1)c1ccc(C(=O)OC)cc1 (stereo not given),"inconclusive: 0.794 µM [inhibitor, full curve, poor fit]",–
